# Assay results from the supplement of paper PMC8728848.
# The list shows a part of the results.
# B1: GSL-I (Griffonia simplicifolia) (protein)
# chain: FNLPNFWSDVKDNIIFQGDANTTAGTLQLCKTNQYGNPLQYRAGRALYSDPVQLWDNKTGSVASFYTEFTFFLKITGDGPADGLAFFLAPPDSDVKDAGAYLGLFNKSTATQPSKNQVVAVEFDTWKNTDFPEPSYRHIGINVNSIVSVATKRWEDSDIFSGKIATARISYDGSAKILTVVLSYPDGADYILSHSVDLSKNLPNPIRVGISASTGANQFLTVYVLSWRFSSALQSTSVNAAMGPEIIRTVV
# Legend:
# Experiment in all cases: glycan array binding signal (z-score within array); higher = stronger binding
# Details in all cases: glycan notation: IUPAC condensed, linker removed
# [1] = molecular target: Gal(b1-3)GlcNAc(b1-3)Gal(b1-3)GlcNAc
# Procedure, shortened: (§1)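 Glycan array data came from 3228 arrays in the Consortium for Functional Glycomics database, and only arrays with an available protein sequence were kept. Glycan names were put into IUPAC-condensed notation, and columns mapping to the same glycan were averaged. The binding signal is a within-array Z-score, averaged across arrays of one protein sequence run at different concentrations or buffers and across linkers. A negative Z-score can be read as non-binding.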
# [2] = molecular target: Gal(b1-3)GlcNAc(b1-3)Gal(b1-4)Glc
# Procedure, shortened: as §1
# [3] = molecular target: Gal(b1-3)GlcNAc(b1-3)Gal(b1-4)GlcNAc
# Procedure, shortened: as §1
# [4] = molecular target: Gal(b1-3)GlcNAc(b1-3)Gal(b1-4)GlcNAc(b1-2)Man(a1-3)[Gal(b1-3)GlcNAc(b1-3)Gal(b1-4)GlcNAc(b1-2)Man(a1-6)]Man(b1-4)GlcNAc(b1-4)GlcNAc
# Procedure, shortened: as §1
# [5] = molecular target: Gal(b1-3)GlcNAc(b1-3)Gal(b1-4)GlcNAc(b1-2)[Gal(b1-3)GlcNAc(b1-3)Gal(b1-4)GlcNAc(b1-6)]Man(a1-6)[Gal(b1-3)GlcNAc(b1-3)Gal(b1-4)GlcNAc(b1-2)Man(a1-3)]Man(b1-4)GlcNAc(b1-4)[Fuc(a1-6)]GlcNAc
# Procedure, shortened: as §1
# [6] = molecular target: Gal(b1-3)GlcNAc(b1-3)Gal(b1-4)GlcNAc(b1-3)Gal(b1-4)GlcNAc(b1-2)[Gal(b1-3)GlcNAc(b1-3)Gal(b1-4)GlcNAc(b1-3)Gal(b1-4)GlcNAc(b1-6)]Man(a1-6)[Gal(b1-3)GlcNAc(b1-3)Gal(b1-4)GlcNAc(b1-3)Gal(b1-4)GlcNAc(b1-2)Man(a1-3)]Man(b1-4)GlcNAc(b1-4)[Fuc(a1-6)]GlcNAc
# Procedure, shortened: as §1
# [7] = molecular target: Gal(b1-3)GlcNAc(b1-3)Gal(b1-4)GlcNAc(b1-6)[Gal(b1-3)GlcNAc(b1-3)]Gal(b1-4)Glc
# Procedure, shortened: as §1
# [8] = molecular target: Gal(b1-3)GlcNAc(b1-3)Gal(b1-4)[Fuc(a1-3)]GlcNAc
# Procedure, shortened: as §1
# [9] = molecular target: Gal(b1-3)GlcNAc(b1-3)Gal(b1-4)[Fuc(a1-3)]GlcNAc(b1-6)[Gal(b1-3)GlcNAc(b1-3)]Gal(b1-4)Glc
# Procedure, shortened: as §1
# [10] = molecular target: Gal(b1-3)GlcNAc(b1-3)GalNAc
# Procedure, shortened: as §1
# [11] = molecular target: Gal(b1-3)GlcNAc(b1-6)Gal(b1-4)GlcNAc
# Procedure, shortened: as §1
# [12] = molecular target: Gal(b1-3)GlcNAc(b1-6)GalNAc
# Procedure, shortened: as §1
# [13] = molecular target: Gal(b1-3)GlcNAc(b1-6)[Gal(b1-3)]GalNAc
# Procedure, shortened: as §1
# Gal(b1-3)GlcNAc6S = molecular target: Gal(b1-3)GlcNAc6S
# Procedure, shortened: as §1
# [14] = molecular target: Gal(b1-3)[Fuc(a1-4)]GlcNAc
# Procedure, shortened: as §1
# [15] = molecular target: Gal(b1-3)[Fuc(a1-4)]GlcNAc(b1-2)Man
# Procedure, shortened: as §1
# [16] = molecular target: Gal(b1-3)[Fuc(a1-4)]GlcNAc(b1-2)Man(a1-3)[Gal(b1-3)[Fuc(a1-4)]GlcNAc(b1-2)Man(a1-6)]Man(b1-4)GlcNAc(b1-4)[Fuc(a1-6)]GlcNAc
# Procedure, shortened: as §1
# [17] = molecular target: Gal(b1-3)[Fuc(a1-4)]GlcNAc(b1-3)Gal(b1-3)[Fuc(a1-4)]GlcNAc
# Procedure, shortened: as §1
# [18] = molecular target: Gal(b1-3)[Fuc(a1-4)]GlcNAc(b1-3)Gal(b1-4)GlcNAc
# Procedure, shortened: as §1
# [19] = molecular target: Gal(b1-3)[Fuc(a1-4)]GlcNAc(b1-3)Gal(b1-4)[Fuc(a1-3)]GlcNAc
# Procedure, shortened: as §1
# [20] = molecular target: Gal(b1-3)[Fuc(a1-4)]GlcNAc(b1-6)GalNAc
# Procedure, shortened: as §1
# [21] = molecular target: Gal(b1-3)[GlcNAc(b1-6)]GalNAc
# Procedure, shortened: as §1
# [22] = molecular target: Gal(b1-3)[Neu5Ac(a2-6)]GalNAc
# Procedure, shortened: as §1
# [23] = molecular target: Gal(b1-3)[Neu5Ac(a2-6)]GlcNAc(b1-4)Gal(b1-4)Glc
# Procedure, shortened: as §1
# [24] = molecular target: Gal(b1-3)[Neu5Ac(a2-6)]GlcNAc(b1-6)Gal(b1-4)Glc
# Procedure, shortened: as §1
# [25] = molecular target: Gal(b1-3)[Neu5Ac(b2-6)]GalNAc
# Procedure, shortened: as §1
# Gal(b1-4)Gal = molecular target: Gal(b1-4)Gal
# Procedure, shortened: as §1
# [26] = molecular target: Gal(b1-4)GalNAc(a1-3)[Fuc(a1-2)]Gal(b1-4)GlcNAc
# Procedure, shortened: as §1
# [27] = molecular target: Gal(b1-4)GalNAc(b1-3)[Fuc(a1-2)]Gal(b1-4)GlcNAc
# Procedure, shortened: as §1
# Gal(b1-4)Glc = molecular target: Gal(b1-4)Glc
# Procedure, shortened: as §1
# Gal(b1-4)Glc6S = molecular target: Gal(b1-4)Glc6S
# Procedure, shortened: as §1
# Gal(b1-4)GlcNAc = molecular target: Gal(b1-4)GlcNAc
# Procedure, shortened: as §1
# [28] = molecular target: Gal(b1-4)GlcNAc(a1-6)Gal(b1-4)GlcNAc
# Procedure, shortened: as §1
# Gal(b1-4)GlcNAc(b1-2)Man = molecular target: Gal(b1-4)GlcNAc(b1-2)Man
# Procedure, shortened: as §1
# [29] = molecular target: Gal(b1-4)GlcNAc(b1-2)Man(a1-3)Man(b1-4)GlcNAc(b1-4)GlcNAc
# Procedure, shortened: as §1
# [30] = molecular target: Gal(b1-4)GlcNAc(b1-2)Man(a1-3)[Gal(b1-4)GlcNAc(b1-2)Man(a1-6)]Man(b1-4)GlcNAc(b1-4)GlcNAc
# Procedure, shortened: as §1
# [31] = molecular target: Gal(b1-4)GlcNAc(b1-2)Man(a1-3)[Gal(b1-4)GlcNAc(b1-2)Man(a1-6)]Man(b1-4)GlcNAc(b1-4)[Fuc(a1-6)]GlcNAc
# Procedure, shortened: as §1
# [32] = molecular target: Gal(b1-4)GlcNAc(b1-2)Man(a1-3)[Gal(b1-4)GlcNAc(b1-2)Man(a1-6)][Gal(b1-4)GlcNAc(b1-4)]Man(b1-4)GlcNAc(b1-4)[Fuc(a1-6)]GlcNAc
# Procedure, shortened: as §1
binder,measurement,setting,value
B1,glycan array binding signal (z-score),[1],-0.079
same,glycan array binding signal (z-score),[2],-0.194
same,glycan array binding signal (z-score),[3],-0.226
same,glycan array binding signal (z-score),[4],-0.197
same,glycan array binding signal (z-score),[5],0.136
same,glycan array binding signal (z-score),[6],-0.066
same,glycan array binding signal (z-score),[7],-0.151
same,glycan array binding signal (z-score),[8],-0.077
same,glycan array binding signal (z-score),[9],-0.247
same,glycan array binding signal (z-score),[10],-0.203
same,glycan array binding signal (z-score),[11],-0.171
same,glycan array binding signal (z-score),[12],-0.238
same,glycan array binding signal (z-score),[13],-0.148
same,glycan array binding signal (z-score),Gal(b1-3)GlcNAc6S,-0.277
same,glycan array binding signal (z-score),[14],-0.224
same,glycan array binding signal (z-score),[15],-0.235
same,glycan array binding signal (z-score),[16],0.288
same,glycan array binding signal (z-score),[17],-0.172
same,glycan array binding signal (z-score),[18],-0.324
same,glycan array binding signal (z-score),[19],-0.184
same,glycan array binding signal (z-score),[20],0.019
same,glycan array binding signal (z-score),[21],-0.102
same,glycan array binding signal (z-score),[22],-0.223
same,glycan array binding signal (z-score),[23],-0.233
same,glycan array binding signal (z-score),[24],-0.317
same,glycan array binding signal (z-score),[25],-0.281
same,glycan array binding signal (z-score),Gal(b1-4)Gal,-0.106
same,glycan array binding signal (z-score),[26],-0.246
same,glycan array binding signal (z-score),[27],-0.274
same,glycan array binding signal (z-score),Gal(b1-4)Glc,-0.194
same,glycan array binding signal (z-score),Gal(b1-4)Glc6S,-0.174
same,glycan array binding signal (z-score),Gal(b1-4)GlcNAc,-0.22
same,glycan array binding signal (z-score),[28],-0.189
same,glycan array binding signal (z-score),Gal(b1-4)GlcNAc(b1-2)Man,-0.107
same,glycan array binding signal (z-score),[29],-0.218
same,glycan array binding signal (z-score),[30],-0.265
same,glycan array binding signal (z-score),[31],-0.084
same,glycan array binding signal (z-score),[32],-0.258
